5 molecules from publication PMC5645412, “AUNIP/C1orf135 directs DNA double-strand breaks towards the homologous recombination repair pathway” (Nature Communications, 2017) can be followed below.

Chains of the proteins cited; added tags and fusions are not shown.
UniProt O60934: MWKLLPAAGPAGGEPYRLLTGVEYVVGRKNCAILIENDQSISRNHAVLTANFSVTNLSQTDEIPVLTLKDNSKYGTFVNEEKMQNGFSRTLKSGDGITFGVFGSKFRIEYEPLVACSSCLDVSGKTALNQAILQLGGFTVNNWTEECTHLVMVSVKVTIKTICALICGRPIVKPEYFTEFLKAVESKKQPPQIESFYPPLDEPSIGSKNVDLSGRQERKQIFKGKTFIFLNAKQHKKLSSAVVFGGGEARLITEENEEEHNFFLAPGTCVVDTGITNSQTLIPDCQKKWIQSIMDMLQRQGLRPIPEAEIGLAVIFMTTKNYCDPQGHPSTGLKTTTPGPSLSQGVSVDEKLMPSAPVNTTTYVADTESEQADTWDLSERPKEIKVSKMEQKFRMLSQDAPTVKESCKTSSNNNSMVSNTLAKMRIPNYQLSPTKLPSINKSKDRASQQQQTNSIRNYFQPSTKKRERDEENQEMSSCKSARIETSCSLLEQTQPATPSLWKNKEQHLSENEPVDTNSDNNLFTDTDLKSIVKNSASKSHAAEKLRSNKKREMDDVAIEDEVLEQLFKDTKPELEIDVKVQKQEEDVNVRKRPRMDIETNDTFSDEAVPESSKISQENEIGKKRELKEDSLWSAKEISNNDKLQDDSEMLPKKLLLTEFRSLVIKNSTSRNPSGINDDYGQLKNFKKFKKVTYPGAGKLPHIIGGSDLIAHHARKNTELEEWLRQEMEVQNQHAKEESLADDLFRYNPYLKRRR
UniProt Q92878: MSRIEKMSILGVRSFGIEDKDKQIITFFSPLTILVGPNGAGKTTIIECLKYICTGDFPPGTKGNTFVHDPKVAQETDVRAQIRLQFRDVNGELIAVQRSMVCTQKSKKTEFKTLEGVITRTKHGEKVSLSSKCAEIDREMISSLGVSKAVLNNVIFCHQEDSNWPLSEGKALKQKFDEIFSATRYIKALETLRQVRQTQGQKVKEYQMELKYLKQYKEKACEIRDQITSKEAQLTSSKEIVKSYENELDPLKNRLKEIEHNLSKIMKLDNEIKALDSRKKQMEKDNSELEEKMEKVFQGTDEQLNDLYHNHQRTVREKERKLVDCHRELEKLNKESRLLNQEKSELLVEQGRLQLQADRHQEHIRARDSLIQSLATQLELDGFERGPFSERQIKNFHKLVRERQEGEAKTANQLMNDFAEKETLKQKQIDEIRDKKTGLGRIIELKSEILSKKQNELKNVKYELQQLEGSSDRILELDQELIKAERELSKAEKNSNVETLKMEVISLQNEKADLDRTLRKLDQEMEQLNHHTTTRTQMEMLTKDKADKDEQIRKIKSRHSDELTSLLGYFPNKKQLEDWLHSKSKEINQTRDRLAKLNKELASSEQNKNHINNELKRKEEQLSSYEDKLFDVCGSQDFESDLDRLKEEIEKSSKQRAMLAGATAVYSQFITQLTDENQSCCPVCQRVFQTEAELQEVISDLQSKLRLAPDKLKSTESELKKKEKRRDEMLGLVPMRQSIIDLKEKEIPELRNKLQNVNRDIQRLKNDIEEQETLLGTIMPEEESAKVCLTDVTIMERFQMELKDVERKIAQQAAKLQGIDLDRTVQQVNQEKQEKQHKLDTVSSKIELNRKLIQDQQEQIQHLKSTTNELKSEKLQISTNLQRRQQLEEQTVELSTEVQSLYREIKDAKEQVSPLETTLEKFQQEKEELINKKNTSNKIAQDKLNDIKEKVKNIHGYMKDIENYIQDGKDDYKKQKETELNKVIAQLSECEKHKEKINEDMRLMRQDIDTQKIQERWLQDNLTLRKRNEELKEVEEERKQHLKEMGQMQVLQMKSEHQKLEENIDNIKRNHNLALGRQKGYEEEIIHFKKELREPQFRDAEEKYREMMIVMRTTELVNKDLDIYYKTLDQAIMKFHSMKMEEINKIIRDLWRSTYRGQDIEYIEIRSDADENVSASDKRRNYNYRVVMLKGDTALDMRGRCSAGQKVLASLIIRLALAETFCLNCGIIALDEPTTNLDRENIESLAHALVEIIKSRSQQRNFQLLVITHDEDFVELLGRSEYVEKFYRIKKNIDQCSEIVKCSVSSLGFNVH

The target of assay [1] is T1, endogenous AUNIP (human (endogenous in HeLa)) (UniProt Q9H7T9).
T1 sequence: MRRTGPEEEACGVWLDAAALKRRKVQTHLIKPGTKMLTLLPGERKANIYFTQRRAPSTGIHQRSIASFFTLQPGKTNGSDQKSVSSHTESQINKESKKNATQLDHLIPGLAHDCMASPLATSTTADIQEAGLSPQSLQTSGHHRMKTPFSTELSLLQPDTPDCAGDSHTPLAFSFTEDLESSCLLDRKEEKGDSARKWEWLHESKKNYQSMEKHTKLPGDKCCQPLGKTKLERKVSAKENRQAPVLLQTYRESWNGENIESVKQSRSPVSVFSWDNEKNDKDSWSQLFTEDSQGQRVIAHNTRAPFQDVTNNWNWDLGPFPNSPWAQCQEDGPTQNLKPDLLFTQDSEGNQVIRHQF
Briefly: co-IP; endogenous proteins; HeLa cell lysates treated with Benzonase, with or without CPT treatment of the cells, precipitated with anti-AUNIP or anti-CtIP antibodies; immunoblot.

Assay [2] concerns the target T2, SFB-tagged AUNIP (human) (UniProt Q9H7T9).
T2 sequence: T1 sequence
Briefly: co-IP; HEK293T cells co-transfected with SFB-AUNIP and one Myc-tagged protein, lysed with NETN buffer; lysates incubated with S protein beads; western blot with anti-Myc and anti-Flag.

Assay [3] deals with T2, SFB-tagged AUNIP (human). The assay can be described thus: co-IP; HEK293T cells transiently transfected with SFB-tagged AUNIP (wild type or mutant) and Myc-tagged partners; NETN lysates on S-protein beads, 4 h at 4 °C; immunoblot.

No constants are given. Whether binding was seen depends on the method and setting. Binding seen in cells or lysates may run through a third protein. Some results given as binding are weak or reduced against the parent protein; the word gives no strength. For some of these results: Where a sequence is shown, tags or fusion partners need not be part of it.

With “NBS1 (endogenous, HeLa) (from UniProt O60934 1-754)”, the binding result in assay [1] is “binds”. Turning to “Myc-tagged NBS1 (from UniProt O60934 1-754)”, the binding result in assay [2] and in assay [3] was “binds” in each case.

As to “RAD50 (endogenous, HeLa) (from UniProt Q92878 1-1312)”, in assay [1], the binding result was “binds”. For “Myc-tagged RAD50 (from UniProt Q92878 1-1312)”, the binding entry in assay [2] and in assay [3] was “binds” throughout.

B1: Morc3 (protein, UniProt Q14149 1-939)
chain: MAAQPPRGIRLSALCPKFLHTNSTSHTWPFSAVAELIDNAYDPDVNAKQIWIDKTVINDHICLTFTDNGNGMTSDKLHKMLSFGFSDKVTMNGHVPVGLYGNGFKSGSMRLGKDAIVFTKNGESMSVGLLSQTYLEVIKAEHVVVPIVAFNKHRQMINLAESKASLAAILEHSLFSTEQKLLAELDAIIGKKGTRIIIWNLRSYKNATEFDFEKDKYDIRIPEDLDEITGKKGYKKQERMDQIAPESDYSLRAYCSILYLKPRMQIILRGQKVKTQLVSKSLAYIERDVYRPKFLSKTVRITFGFNCRNKDHYGIMMYHRNRLIKAYEKVGCQLRANNMGVGVVGIIECNFLKPTHNKQDFDYTNEYRLTITALGEKLNDYWNEMKVKKNTEYPLNLPVEDIQKRPDQTWVQCDACLKWRKLPDGMDQLPEKWYCSNNPDPQFRNCEVPEEPEDEDLVHPTYEKTYKKTNKEKFRIRQPEMIPRINAELLFRPTALSTPSFSSPKESVPRRHLSEGTNSYATRLLNNHQVPPQSEPESNSLKRRLSTRSSILNAKNRRLSSQFENSVYKGDDDDEDVIILEENSTPKPAVDHDIDMKSEQSHVEQGGVQVEFVGDSEPCGQTGSTSTSSSRCDQGNTAATQTEVPSLVVKKEETVEDEIDVRNDAVILPSCVEAEAKIHETQETTDKSADDAGCQLQELRNQLLLVTEEKENYKRQCHMFTDQIKVLQQRILEMNDKYVKKETCHQSTETDAVFLLESINGKSESPDHMVSQYQQALEEIERLKKQCSALQHVKAECSQCSNNESKSEMDEMAVQLDDVFRQLDKCSIERDQYKSEVELLEMEKSQIRSQCEELKTEVEQLKSTNQQTATDVSTSSNIEESVNHMDGESLKLRSLRVNVGQLLAMIVPDLDLQQVNYDVDVVDEILGQVVEQMSEISST
B1: the binding result in assay [3] is listed as “no binding”.
